# In PubChem BioAssay (NCATS):
# “And” between values parts separate entries of the source, which are not always exact repeats. Equal entries are not always repeated. Inconclusive means that the source gave no clear call. Such entries were picked first, then a sample of the others. For some of these results: A potency beside an inconclusive call is a rough fit, not a confirmed value. The source made the active and inactive calls. Unless noted, calls come from the whole dose curve; as a rule, active = well fitted curve in the direction sought with a large enough effect; inconclusive = small, poorly fitted or top-dose-only effect, or another doubt; inactive = no such curve, though single readings can be large; an effect the other way counts as inactive or inconclusive.
# How the values were obtained:
# [1] = Primary qHTS for inhibitors of nuclear receptor binding SET domain protein 2 (NSD2) in an isogenic RCH-ACV NSD2 p.E1099K mutant (9B) (AID 1645876); settings: RCH-ACV NSD2 E1099K (9B) viability, CellTiter-Glo, 72 h; series mostly up to 44.9 µM; note: nearly all actives have a fitted effect of over 70% in size; note: potency is the fitted concentration of half-maximal effect
# Papain (Carica papaya) = Papain (Carica papaya) (UniProt P00784); assay: Primary qHTS assay for inhibitors of the protease papain (AID 1645873); settings: papain Z-FR-AMC cleavage, AMC fluorescence; series mostly up to 49.8 µM;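 note: papain turnover of Z-FR-AMC read as the AMC fluorescence gain over 10 min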; note: potency is the fitted concentration of half-maximal effect
# [2] = Primary qHTS for inhibitors of nuclear receptor binding SET domain protein 2 (NSD2) in an RCH-ACV wild type WT cells (2C) (AID 1645877); settings: RCH-ACV (leukaemia line) NSD2 WT (2C) viability, CellTiter-Glo, 72 h; series mostly up to 44.9 µM; note: nearly all actives have a fitted effect of over 70% in size; note: potency is the fitted concentration of half-maximal effect
# [3] = VSVG counterscreen qHTS to identify inhibitors of SARS-CoV-2 cell entry (AID 1645847; calls by dose curve; note: nearly all actives have a fitted effect of over 65% in size); settings: VSV-G pseudotyped particle entry, luciferase; series mostly up to 57.2 µM
# In short: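 Counterscreen using VSV-G (not spike) pseudotyped MLV particles on ACE2-expressing Expi293F cells after 1 h compound preincubation; infection ran 48 h at 37 °C. Data normalized to VSV-G PP and bald-PP wells.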
# [4] = Primary fluorescence-based thiol-reactive (MSTI) qHTS assay for identification of artifact compounds. (AID 1845221); settings: MSTI thiol-reactivity probe, 1 h; series mostly up to 53.8 µM;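 note: potency is the fitted concentration of half-maximal effect; thiol-reactive compounds lower the probe fluorescence signal; nearly all actives have a fitted effect of over 65% in size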
# In short: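 First, 4 uM MSTI in 2% DMSO/PBS pH 7.4 was dispensed; next, compounds were added; then plates sat 1 h at room temperature without light. Finally, emission at 598 nm was recorded.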
# [5] = target: Phospholipid hydroperoxide glutathione peroxidase GPX4 (Homo sapiens) (UniProt P36969); assay: Primary qHTS Assay for Inhibitors of Recombinant Selenoprotein Glutathione Peroxidase 4 (GPX4) (AID 1845192); settings: recombinant GPX4, GR-coupled NADPH fluorescence, 15 min; series mostly up to 50 µM; note: potency is the fitted concentration of half-maximal effect; nearly all actives have a fitted effect of over 65% in size
# In short: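 qHTS, GR-coupled: GPX4 200 nM + cpd 30 min RT → GSH 1 mM, NADPH 0.5 mM, GR 100 nM → CHP 0.5 mM start; fluor 340/450 at t0 and t15 min; no-enzyme wells as control.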
# [6] = target: N-terminal Xaa-Pro-Lys N-methyltransferase 1 (Homo sapiens) (UniProt Q9BV86); assay: Confirmatory qHTS for Inhibitors of N-terminal methyltransferase 1 (NTMT1): MTaseGlo Assay (AID 1645874); settings: NTMT1 enzyme, MTase-Glo SAH luminescence; series mostly up to 100 µM; note: nearly all actives have a fitted effect of over 65% in size; note: potency is the fitted concentration of half-maximal effect
# In short: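 Inhibition was derived from luminescence after SAH-to-ATP conversion, scaled between no-enzyme and DMSO wells, then fitted by 4-parameter Hill. Conditions: 125 nM NTMT1, 100 uM SAM, 1 uM SPKRIA, 30 min RT.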
# [7] = target: Glutathione peroxidase 1 (Homo sapiens) (UniProt P07203); assay: Primary qHTS Assay for Inhibitors of Recombinant Selenoprotein Glutathione Peroxidase 1 (GPX1) (AID 1845191); settings: recombinant GPX1, GR-coupled NADPH fluorescence, 15 min; series mostly up to 48.8 µM
# In short: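 GPX1 10 nM, GR 100 nM, GSH 1 mM, NADPH 0.5 mM, CHP 0.5 mM (final). 30-min cpd preincubation, RT. Ex340/Em450 read t=0, t=15 min.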
# Tags give direction and shape of the fitted curve.
# UniProt Q9BV86, sequence (Q9BV86 whole entry, looked up): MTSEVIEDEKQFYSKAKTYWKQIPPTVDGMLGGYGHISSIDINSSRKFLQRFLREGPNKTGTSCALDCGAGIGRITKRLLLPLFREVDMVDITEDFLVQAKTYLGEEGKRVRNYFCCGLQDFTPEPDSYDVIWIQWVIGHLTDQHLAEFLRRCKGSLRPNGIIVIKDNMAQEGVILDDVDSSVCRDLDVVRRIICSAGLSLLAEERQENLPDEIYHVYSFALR
# UniProt P00784, sequence (P00784 whole entry, looked up, the tested form may be a part): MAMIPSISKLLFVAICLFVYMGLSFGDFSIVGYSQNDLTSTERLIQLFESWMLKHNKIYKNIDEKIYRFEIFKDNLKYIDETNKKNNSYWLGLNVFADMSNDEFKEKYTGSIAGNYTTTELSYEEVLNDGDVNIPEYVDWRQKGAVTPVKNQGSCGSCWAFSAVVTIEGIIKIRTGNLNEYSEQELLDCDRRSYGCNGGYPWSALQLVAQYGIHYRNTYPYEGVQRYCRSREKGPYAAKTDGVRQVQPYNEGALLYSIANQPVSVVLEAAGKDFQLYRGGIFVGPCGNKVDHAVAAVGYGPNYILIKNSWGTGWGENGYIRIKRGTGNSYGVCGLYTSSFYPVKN
# UniProt P36969, sequence (P36969 whole entry, looked up): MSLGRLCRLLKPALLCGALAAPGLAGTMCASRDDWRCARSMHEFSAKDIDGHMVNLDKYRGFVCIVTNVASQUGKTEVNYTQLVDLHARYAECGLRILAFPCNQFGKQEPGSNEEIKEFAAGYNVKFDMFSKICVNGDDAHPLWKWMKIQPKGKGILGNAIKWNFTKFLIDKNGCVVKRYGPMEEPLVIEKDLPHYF
# UniProt P07203, sequence (P07203 whole entry, looked up): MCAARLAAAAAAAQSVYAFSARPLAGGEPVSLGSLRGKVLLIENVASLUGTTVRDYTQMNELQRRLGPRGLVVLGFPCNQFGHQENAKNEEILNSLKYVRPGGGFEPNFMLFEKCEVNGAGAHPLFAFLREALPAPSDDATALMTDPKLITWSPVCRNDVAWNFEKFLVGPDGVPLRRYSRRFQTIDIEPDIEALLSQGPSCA
structure (smiles),measurement,setting,value
CNCC(O)c1ccc(O)cc1 (stereo unspecified),Potency,[1],inactive
CCCC[N+]1(C)[C@@H]2CC(OC(=O)[C@H](CO)c3ccccc3)C[C@H]1[C@@H]1O[C@@H]12 (stereo partly specified),Potency,[1],inactive
CN1C[C@H](CNC(=O)OCc2ccccc2)C[C@@H]2c3cccc4c3c(cn4C)C[C@H]21,Potency,Papain (Carica papaya),"inconclusive: 2.51 µM [inhibitor, full curve]"
same,Potency,[1],"inconclusive: 29.9 µM [inhibitor, single point]"
same,Potency,[2],"inconclusive: 29.9 µM [inhibitor, single point]"
COC(=O)[C@@H](N)CCCN=C(N)N[N+](=O)[O-],Potency,Papain (Carica papaya),"inconclusive: 0.224 µM [inhibitor, full curve]"
same,Potency,[2],inactive
C[C@H]1C(=O)O[C@@H]2CCN3CC=C(COC(=O)[C@](C)(O)[C@]1(C)O)[C@H]23,Potency,[1],"inconclusive: 33.5 µM [inhibitor, single point]"
COc1c2c(cc3c1OCO3)CCN(C)C2,Potency,[1],inactive
CCc1c(C(=O)C(N)=O)c2c(OCC(=O)O)cccc2n1Cc1ccccc1,Potency,[3],inactive
same,Potency,[4],"inconclusive: 3.77 µM [inhibitor, full curve, poor fit]"
CN1[C@@H]2CC[C@H]1CC(OC(=O)C1C=Nc3ccccc31)C2 (stereo partly specified),Potency,[1],inactive
C[CH2][Hg][S]c1ccccc1C(=O)O,Potency,[1],active: 0.668 µM
O=C(O)c1nn(Cc2ccc(Cl)cc2Cl)c2ccccc12,Potency,Papain (Carica papaya),"inconclusive: 11.2 µM [inhibitor, partial curve, poor fit]"
same,Potency,[5],"inconclusive: 20.2 µM [inhibitor, partial curve, poor fit]"
CN1CC[C@@]2(C)c3cc(OC(=O)Nc4ccccc4)ccc3N(C)[C@@H]12,Potency,Papain (Carica papaya),"inconclusive: 3.55 µM [inhibitor, single point]"
C[C@]12CC[C@H]3[C@@H](CCC4=CC(=O)CC[C@@H]43)[C@@H]1CC[C@@H]2O,Potency,[6],"inconclusive: 39.8 µM [inhibitor, partial curve]"
same,Potency,[1],"inconclusive: 42.2 µM [inhibitor, partial curve, poor fit]"
CCc1cc(OC)c(C[C@H](C)N)cc1OC,Potency,[6],inactive
same,Potency,[1],"inconclusive: 79.9 µM [inhibitor, single point]"
same,Potency,[2],active: 44.9 µM
COC1C(O)C(OC2CCC3(C=O)C(CCC4C3CCC3(C)C(C5=CC(=O)OC5)CCC43O)C2)OC(C)C1OC1OC(CO)C(O)C(O)C1O (stereo unspecified),Potency,[1],active: 0.171 µM
CC(=O)[C@H]1CC[C@H]2[C@@H]3CC[C@H]4C[C@H](O)CC[C@]4(C)[C@H]3C(=O)C[C@]12C,Potency,Papain (Carica papaya),"inconclusive: 0.355 µM [inhibitor, partial curve]"
same,Potency,[1],"inconclusive: 21.1 µM [inhibitor, partial curve, poor fit]"
same,Potency,[2],inactive
CC[C@@H](C(N)=O)N1CCCC1=O,Potency,Papain (Carica papaya),inactive
CC(O)CN1CCN(CC(=O)[O-])CCN(CC(=O)[O-])CCN(CC(=O)[O-])CC1.[Gd+3] (stereo unspecified),Potency,[1],inactive
CO[C@H]1[C@@H](O)[C@@H](C)O[C@@H](O[C@@H]2C=C3C(OC(C)=O)CC4(O)C(CC[C@]5(C)[C@@H](C6=CC(=O)OC6)CC[C@]45O)[C@@]3(C)CC2)[C@@H]1O (stereo partly specified),Potency,[1],active: 0.0483 µM
Cc1cccc(C)c1NC1=NCCCS1,Potency,[1],inactive
CCC1(c2ccccc2)C(=O)N(COC)C(=O)N(COC)C1=O,Potency,[1],inactive
NC(N)=Nc1ccc2[nH]c3c(c2c1)C[C@@]1(O)[C@H]2Cc4ccc(O)c5c4[C@@]1(CCN2CC1CC1)[C@H]3O5,Potency,[6],inactive
CC(=O)NC1CCSC1=O (stereo unspecified),Potency,[1],inactive
O=C(O)c1cc(Oc2ccc(C(F)(F)F)cc2Cl)ccc1[N+](=O)[O-],Potency,[1],"inconclusive: 26.6 µM [inhibitor, single point]"
CC[C@@H](CO)NC(=O)[C@@H]1C=C2c3cccc4[nH]cc(c34)C[C@H]2N(C)C1,Potency,Papain (Carica papaya),"inconclusive: 5.01 µM [inhibitor, partial curve, poor fit]"
same,Potency,[7],"inconclusive: 6.4 µM [inhibitor, full curve]"
CC(C)c1c(CN(C)C(C)Cc2ccccc2)n(C)n(-c2ccccc2)c1=O (stereo unspecified),Potency,[1],inactive
COC[C@H]1OC(=O)c2coc3c2[C@@]1(C)C1=C(C3=O)[C@@H]2CC[C@H](O)[C@@]2(C)C[C@@H]1OC(C)=O,Potency,[1],active: 0.58 µM
COCCOCCO,Potency,[1],"inconclusive: 68.6 µM [inhibitor, single point]"
CC(C)[C@]12O[C@H]1[C@@H]1O[C@]13[C@]1(O[C@H]1C[C@H]1C4=C(CC[C@@]13C)C(=O)OC4)[C@@H]2O,Potency,[1],active: 18.3 nM and active: 23.5 nM
NCCCCCNC1(c2ccccc2)CCCCC1,Potency,[1],"inconclusive: 29 µM [inhibitor, partial curve, poor fit]"
CCC1CN2CCC3(C(=O)Nc4cccc(O)c43)C2CC1/C(=C/OC)C(=O)OC (stereo unspecified),Potency,[1],inactive
CO[C@H]1C[C@H](O[C@H]2CC[C@]3(C=O)[C@H]4CC[C@]5(C)[C@@H](C6=CC(=O)OC6)CC[C@]5(O)[C@@H]4CC[C@]3(O)C2)O[C@H](C)[C@H]1O,Potency,[1],active: 0.0399 µM
COC1CC(O[C@H]2CC[C@]3(C=O)C4CC[C@]5(C)[C@@H](C6=CC(=O)OC6)CC[C@]5(O)[C@@H]4CC[C@]3(O)C2)OC(C)C1O[C@@H]1O[C@H](CO)[C@@H](O)[C@H](O)[C@H]1O (stereo partly specified),Potency,[1],active: 0.0541 µM
Cc1ccccc1CN1CCC(N2CCC(n3c(=O)[nH]c4ccccc43)CC2)CC1,Potency,[1],inactive
CN1C(=O)[C@@H](NC(=O)c2cc3ccccc3[nH]2)N=C(c2ccccc2)c2ccccc21,Potency,[1],inactive
CC12CCC3C(CCC4(O)CC(O)CCC34C=O)C1(O)CCC2C1=CC(=O)OC1 (stereo unspecified),Potency,[1],active: 0.258 µM
COc1ccc2[nH]cc(CCN(C(C)C)C(C)C)c2c1,Potency,[1],"inconclusive: 39.7 µM [inhibitor, single point]"
Cc1ncc2n1-c1ccc(Cl)cc1C(c1ccccc1F)=NC2,Potency,[1],active: 23.7 µM
CCN(CC)CCc1c[nH]c2ccccc12,Potency,[1],"inconclusive: 45.3 µM [inhibitor, single point]"
COC(=O)C1=COC(C)C2CN3CCC4(C(=O)Nc5ccccc54)C3CC12 (stereo unspecified),Potency,[1],inactive
C[C@H](NC(=O)Cc1cc(F)cc(F)c1)C(=O)N[C@@H]1N=C(c2ccccc2)c2ccccc2N(C)C1=O,Potency,[1],"inconclusive: 25.8 µM [inhibitor, partial curve, poor fit]"
CC(C)=C1CC[C@]23CO[C@H](C2)[C@@](O)(C(=O)O)CCC13 (stereo partly specified),Potency,[1],inactive
O=C(NC(O)C(Cl)(Cl)Cl)NC(O)C(Cl)(Cl)Cl (stereo unspecified),Potency,[1],inactive
CNC(C)Cc1ccccc1OC (stereo unspecified),Potency,[1],"inconclusive: 33.5 µM [inhibitor, single point]"
c1ccc(C2(c3ccccc3)OC[C@@H]([C@H]3CCCCN3)O2)cc1,Potency,[1],"inconclusive: 29 µM [inhibitor, partial curve, poor fit]"
Nc1nc(N)nc(NC2CC2)n1,Potency,[1],inactive
Oc1c(Br)cc(Br)cc1Br,Potency,[1],inactive
COC(C)(C)CCCC(C)C/C=C/C(C)=C/C(=O)OC(C)C (stereo unspecified),Potency,[1],inactive
Oc1ccc2[nH]cc(CCCCN3CC=C(c4ccccc4)CC3)c2c1,Potency,[1],active: 7.5 µM
COc1cc2c(c(OC)c1OC)-c1ccc(SC)c(=O)cc1[C@@H](NC(C)=O)CC2,Potency,[1],active: 0.0046 µM
CCN1C[C@]2(OC(=O)c3ccccc3NC(C)=O)CC[C@H](OC)[C@@]34[C@H]5CC6[C@@H](OC)C[C@](O)(C(C[C@@H]23)[C@@H]14)[C@@]5(O)[C@@H]6OC,Potency,[1],inactive
O=S(=O)(F)Cc1ccccc1,Potency,[1],inactive
Nc1ccc(Sc2ccc(N)cc2)cc1,Potency,[1],"inconclusive: 21.7 µM [inhibitor, partial curve]"
CCCCCCCCCC(CC)c1ccc(S(=O)(=O)O)cc1 (stereo unspecified),Potency,[1],"inconclusive: 43.3 µM [inhibitor, single point]"
O=C(NCCN1CCC2(CC1)C(=O)NCN2c1cccc(F)c1)c1ccc(F)c(F)c1,Potency,[1],active: 23 µM
CCC(OC(C)=O)C(CC(C)NC)(c1ccccc1)c1ccccc1 (stereo unspecified),Potency,[1],active: 24.6 µM
C[C@H]1[C@@H]2Cc3ccc(O)cc3[C@@]1(C)CCN2C,Potency,[1],inactive
Cc1cccc(NC(=O)N[C@H]2CN(C)c3ccccc3C(c3ccccc3)=N2)c1,Potency,[1],"inconclusive: 12.9 µM [inhibitor, partial curve]"
CO[C@H]1C[C@H](O[C@H]2CC[C@@]3(C)C(=CCC4C3CC[C@]3(C)[C@@H](C5=CC(=O)OC5)CC[C@]43O)C2)O[C@@H](C)[C@@H]1O[C@@H]1O[C@H](CO[C@@H]2O[C@H](CO)[C@@H](O)[C@H](O)[C@H]2O)[C@@H](O)[C@H](O)[C@H]1O (stereo partly specified),Potency,[1],"inconclusive: 4.88 µM [inhibitor, single point]"
C[C@]12CC[C@H]3[C@@H](CCC4=CC(=O)CC[C@@H]43)[C@@H]1CC[C@@H]2OC(=O)CCc1ccccc1,Potency,[1],"inconclusive: 5.31 µM [inhibitor, partial curve, poor fit]"
Cc1cccc(Cc2cnc[nH]2)c1C,Potency,[1],"inconclusive: 33.5 µM [inhibitor, single point]"
CC(C)=C[C@@H]1[C@@H](C(=O)OCc2coc(Cc3ccccc3)c2)C1(C)C,Potency,[1],"inconclusive: 33.5 µM [inhibitor, single point]"
CO/C=C(/C(=O)OC)c1ccccc1Oc1cc(Oc2ccccc2C#N)ncn1,Potency,[1],active: 24.3 µM
C[C@@]1(CO)[C@H](O)CC[C@@]2(C)[C@H]1CC[C@H]1C[C@@H]3C[C@@]12CC[C@]3(O)CO,Potency,[1],active: 3.19 µM
CC(O)(c1ccccc1)C(Cc1ccc(Cl)cc1)n1cncn1 (stereo unspecified),Potency,[1],"inconclusive: 12.9 µM [inhibitor, partial curve, poor fit]"
same,Potency,[2],"inconclusive: 7.28 µM [inhibitor, partial curve]"
